Data: PubChem BioAssay AID1508623 (National Center for Advancing Translational Sciences (NCATS), 2021)
The whole screen tested about 48,000 compounds, of which about 450 (0.94%) were called active. About 19% were inconclusive and are not listed. Calls follow the shape of the dose curve; as a rule, active = well fitted inhibition curve with a large enough effect; inconclusive = small, poorly fitted or top-dose-only effect; inactive = no such curve, though single readings can be large or run the other way. The list shows a part of the results.

Test: Primary qHTS for Identification of Small Molecule Inhibitors of Huntingtin Promoter Activity; also: nearly all actives have a fitted effect of over 50% in size
Conditions: HEK293 HTT promoter firefly luciferase reporter (activity 0% = vehicle and -100% = no light), 24 h; series mostly up to 57.5 µM; activity change, negative = inhibition: at the top concentration
How it was run: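 Firefly luciferase signal from promoter-reporter HEK293 cells was scaled between vehicle (0%) and zero RLU (-100%). Compounds were tested at final concentrations of up to 57.5 uM over 24 h at 37 degrees C. PTC124 at 50 uM final served as control inhibitor.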
Potency is read from the fitted curve at half-maximal effect.

Activity change, negative = inhibition, inactive:
CCCCN(C)CCCNC(=O)CN1C(=O)COc2ccc(S(=O)(=O)N3CCOCC3)cc21 -12.8%, COc1ccccc1N1CCN(S(=O)(=O)c2c(C)sc3ncn(CC(=O)Nc4ccc(C(F)(F)F)cc4)c(=O)c23)CC1 0.821%, CC(=O)c1ccc(NC(=O)C2CCCN(S(=O)(=O)c3ccc4c(c3)CCCN4C(C)=O)C2)cc1 (stereo unspecified) -24.7%, Cc1cc(C)c(NC(=O)CCCN2C(=O)COc3ccc(C)cc32)c(C)c1 -11.9%, COc1ccc(CCNC(=O)CN(c2cc(C(F)(F)F)ccc2Cl)S(C)(=O)=O)cc1 -9.49%, Cc1ccc(OCC(=O)Nc2ccccc2C(=O)OCc2cc(=O)n3ccsc3n2)cc1C -16.1%, CCc1ccc(NC(=O)c2cc3nc(-c4ccc(C)cc4)cc(C(F)(F)F)n3n2)cc1 -1.93%, COC(=O)c1sc(NC(=O)c2cc3nc(-c4ccc(Br)cc4)cc(C(F)(F)F)n3n2)c(C(=O)OC)c1C -11.5%, O=C(O)Cc1sc(Nc2ccccc2Cl)nc1-c1ccccc1 69.2%, CCOC(=O)c1c(NC(=O)Cc2coc3cc(C)ccc23)sc2c1CCCC2 -14.4%, CCOC(=O)c1cc(S(=O)(=O)N2CCN(c3cc(C)ccc3C)CC2)[nH]n1 -4.41%, COc1ccccc1Nc1nn2c(=O)c3ccc(C(=O)N4CCCCC4)cc3nc2s1 -13.7%, Cc1cccc(C)c1N1CC(c2nc3ccccc3n2CC(=O)OC(C)C)CC1=O (stereo unspecified) -22.3%, COc1ccc(NC(=O)CSc2nc3cc(OC)c(OC)cc3c3nc(-c4ccccc4)nn23)cc1Cl 3.09%, COc1ccc(-c2cc3nccn3c(Nc3ncccc3C(N)=O)n2)cc1OC 3.51%, COc1cc(-c2ccno2)ccc1S(=O)(=O)N1CCN(c2ccccc2F)CC1 -9.86%, COC(=O)c1ccc(NC(=O)C(=O)NCCc2sc(-c3cccc(F)c3)nc2C)cc1 -12.1%, CCCN(CCC)C(=O)CSc1nc2ccccc2c(=O)n1Cc1ccco1 -18.1%, COc1ccc(CC(=O)NCc2nc3cccnc3n2Cc2ccc(C)cc2)cc1 -14.2%, CC1CCN(S(=O)(=O)c2cc3c4c(c2)CC(=O)N4CCC3)CC1 -21.9%, Fc1ccc(-c2cc(-c3ccccc3)c3c(n2)-c2cc(F)ccc2OC3)cc1 -14.2%, COc1ccc(S(=O)(=O)NCC(c2ccco2)N2CCOCC2)cc1 (stereo unspecified) -9.6%, CN(C)S(=O)(=O)c1ccc2c(c1)nnn2CCNC(=O)Nc1ccc(Br)cc1 -28.3%, Cn1c(=O)c2c(nc(NCc3ccccc3)n2Cc2ccccc2Cl)n(C)c1=O -12.4%, O=C(C1CC1)N1CCN(c2nc3ccc(F)cc3s2)CC1 -6.8%, CCCCOc1ccc(CNC(=O)c2cnc3sc(N4CCOCC4)nn3c2=O)cc1 -3.46%, COc1cccc(OCc2nc3ccccc3n2CCOc2ccccc2C)c1 -29.7%, Cn1nnc2c(C(N)=O)ncn2c1=O, CCOC(=O)C(C)Oc1cccc2c(=O)n(CC(=O)Nc3ccc4c(c3)OCCO4)ccc12 (stereo unspecified) 5.56%, Cc1ccc(C)c(Nc2nn3c(=O)c4ccc(C(=O)NC5CCCCC5)cc4nc3s2)c1 -3.24%, COc1ccc(CCNC(=O)CCCCn2c(=O)c3ccccc3n(Cc3ccc(F)cc3Cl)c2=O)cc1OC -6.81%, CCc1ccc(NC(=O)Cn2c(=O)n(CCC(=O)NCc3ccc4c(c3)OCO4)c(=O)c3ccccc32)cc1 -7.14%, CCC1CN(C(=O)Nc2cc(C)cc(C)c2)c2ccccc2O1 (stereo unspecified) -8.71%, Cc1c(C)n(Cc2ccccc2)c2ccc(C(=O)NCc3ccco3)cc12 -4.54%, Cc1c(-c2nsc(NC(=O)c3cccs3)n2)nnn1-c1ccc(Br)cc1 -3.09%, COc1cccc(Cn2c(=O)n(-c3ccccc3C)c(=O)c3c2c2cc(C)ccc2n3C)c1 -32.9%, Cc1ccc(CNC(=O)CN2C(=O)C3CCCCN3c3ccc(C(=O)N4CCCC4)cc32)cc1 (stereo unspecified) -6.65%, COc1ccc(Cl)cc1C(=O)Nc1ccc(-c2nnc3n2CCCCC3)cc1 -7.22%, O=C(NCc1ccccc1Cl)c1ccc2c(O)c(S(=O)(=O)c3ccccc3)c(=O)[nH]c2c1 -3.38%, Cc1cccc(Cc2c(C)nc3nc(SCc4ccccc4C)nn3c2C)c1 -13%, CCc1nn(CC(=O)NC(C)c2ccccc2)c(=O)c2cc3sccc3n12 (stereo unspecified) 7.63%, CCOC(=O)C1=C(CS(=O)(=O)c2ccc(F)cc2)NC(=O)NC1c1ccc(OCC)c(OC)c1 (stereo unspecified) -12.9%, CC(C)CCNC(=O)[C@@H](c1ccccc1)N1Cc2ccccc2C1=O -15.1%, CCOc1ccc(NC(=O)Cn2nnc(C(=O)Nc3ccc(OCC)cc3)c2N)cc1 23.6%, Cc1ccc(C)c(N2CCN(c3cc(C)nc4c(-c5ccc(Cl)cc5)c(C)nn34)CC2)c1 -18.7%, Cc1cc(C)cc(OCC(=O)NCC2(N(C)C)CCCCC2)c1 -0.884%, CCCc1cc(=O)n2[nH]c(NCc3ccccc3OC)nc2n1 -11.5%, O=C(COc1ccccc1-c1nc(-c2ccccc2)no1)Nc1ccccc1[N+](=O)[O-] -5.91%, CC(=O)Nc1ccc(C2Nc3c(C)cc(C)cc3-c3cc(C)nn32)cc1 (stereo unspecified) -10.1% [at 11.5 µM], Cc1ccc(S(=O)(=O)NCCSc2nnnn2-c2ccc(Cl)c(C(=O)O)c2)cc1 -8.21%, CCOC(=O)c1ccc(NC(=O)C(Cc2ccccc2)NS(=O)(=O)c2ccc(Br)s2)cc1 (stereo unspecified) 4.14%, CCOC(=O)c1c(C)oc2nc(C)nc(NCc3ccccc3OCC)c12 -2.03%, CCCc1nc2ccccc2n2c(-c3cccc(C)c3)c3c(=O)n(C)c(=O)n(C)c3c12 7.13% [at 11.5 µM], O=C(NCc1ccccc1Cl)C1CCCN(c2ncnc3onc(-c4ccc(F)cc4)c23)C1 (stereo unspecified) -12.3%

Potency, active:
Cc1ccc(S(=O)(=O)N2CCC(c3ccncc3)CC2)c(C)c1 15.8 µM, COc1cc(OC)c(NS(=O)(=O)c2ccc3c(c2)NC(=O)CCS3)cc1Cl 28.2 µM
